The source of these data is PubChem BioAssay AID463173 (ICCB-Longwood Screening Facility, Harvard Medical School, 2010).

The whole screen tested about 52,000 compounds, of which about 4,300 (8.3%) were called active. No stated cut-off is given here; in the data, active means survival mostly below about 52% (no sharp cut-off); inactive means mostly above about 56%. Some of the results follow.

The test system of this experiment is DeltatarO mutant. The experiment is described as follows: S. aureus survival, RN4220 and DeltatarO strains – OD600, teichoic acid synthesis inhibitors, primary screen (AID 463173). To be noted: S. aureus RN4220 wild type/DeltatarO growth, OD600, 18 h, hits give low values, screened at 18.75 µg/mL (by protocol).
With `Cc1ccc(-c2nnc(Nc3ccccc3)c3ccccc23)cc1S(=O)(=O)NCc1nc2ccccc2[nH]1`, the survival was inactive: 73%.
The same measure for `Cc1ccc(C)c(N2CCN(CCCNC(=O)c3ccc4nc(N5CCCCC5)sc4c3)CC2)c1`: inactive: 71%.
Consider `COc1ccc(C(=O)N(c2ccc(OC)cc2)S(=O)(=O)c2ccc3c(c2)n(C)c(=O)n3C)cc1`, for which the survival was inactive: 84%.
For `Cc1c(CNC2CCCCC2)c(C(=O)O)c(C)n1Cc1ccc(F)cc1` the value was inactive: 85%; for `CCOc1ccc(C(=O)Nc2ccc(-n3nncc3-c3ccccc3)cc2)cc1OCC`, inactive: 116%.
Regarding `CCC(=O)Nc1ccc2nc3c(=O)n(C)c(=O)n(C)c3nc2c1`, the survival is inactive: 66%.
As for `CCC(NC(=O)Nc1cc(OC)ccc1OC)c1c(-n2cccc2)sc2c1CCN(CC)C2` (stereo not given), the survival is inactive: 88%.
As to `CC1(C)CC(=O)C2=C(C1)OC1=C(C(=O)CC(C)(C)C1)C2c1ccc2c(c1)OCO2`, the survival was inactive: 69%.
For `CCN(C(=O)c1cc2c(=O)n3cccc(C)c3nc2s1)c1ccc(C)c(C)c1` the value was inactive: 65%.
In the case of `Cc1nn(CC(=O)Nc2cc(F)ccc2F)c(=O)c2cccn12`, the survival was inactive: 94%.
The same measure for `CC(C)(C)c1ccccc1NC(=O)CSc1nc(-c2cccs2)cc(C(F)(F)F)n1`: active: 23%.
Regarding `Cc1cc(Nc2ccc(Cl)cc2C)nc(-n2nc(C)cc2C)n1`, the survival was inactive: 74%.
Consider `CN1CCN(C2=NC(=O)/C(=C\C=C/c3ccccc3)S2)CC1`, for which the survival was inactive: 79%.
`CC(C)c1noc(-c2ccccc2OCC(=O)Nc2ccccc2[N+](=O)[O-])n1`: the survival was active: 44%.
The same measure for `O=C(NCc1ccc2c(c1)CCN2C(=O)c1ccc(F)cc1)c1ccco1`: inactive: 115%; for `Cc1cc(C)n(-c2n[nH]c(=S)c3ccccc23)n1`: inactive: 81%; for `CCOc1ccc(-n2c(CC)nc3c(cnn3-c3ccc(Cl)cc3)c2=O)cc1`: inactive: 46%.
With `COc1ccc(-c2nc3c4ccccc4n(CC(=O)N4CCN(c5ccc(F)cc5)CC4)c(=O)n3n2)cc1`, the survival is inactive: 79%.
Consider `Cc1cccc(Cn2c(C)c(CNC3CCCCCC3)c(C(=O)O)c2C)c1`, for which the survival is inactive: 83%.
With `COc1c(Cl)cc(C(=O)N(Cc2ccc(C)o2)C2CCS(=O)(=O)C2)cc1Cl` (stereo not given), the survival was inactive: 79%.
For `Cc1oc(-c2cccc(Cl)c2)nc1CN1CCCC(C(=O)N2CCN(c3ccc(F)cc3)CC2)C1` (stereo not given) the value was inactive: 111%; for `O=C(Cn1c(=O)c2ccccc2n(CC(=O)Nc2ccc(F)cc2)c1=O)NCCc1ccccc1`, inactive: 117%; for `O=C(CSc1nc2c([nH]c3ccccc32)c(=O)n1-c1cccc(Cl)c1)N1CCOCC1`, inactive: 70%.
For `CCCCCC(=O)Nc1ccc(NC(=O)c2cc3ccccc3o2)c(OC)c1` the value was inactive: 68%; for `Cc1oc2ccc(O)c(CN3CCN(C)CC3)c2c1C(=O)Nc1cccc(C(F)(F)F)c1`, inactive: 81%.
The same measure for `CCOC(=O)c1c(NC(=O)CSc2cn(CCNC(=O)c3ccccc3OC)c3ccccc23)sc2c1CCC2`: inactive: 141%.
In the case of `CC(C)c1nc2n(n1)C1(CCCCC1)[C@@H]1CCCC[C@@H]1N2`, the survival is inactive: 111%.
The same measure for `CCS(=O)(=O)N1CCC(NC(=O)C(Cc2ccc(OC)c(OC)c2)NC(C)=O)CC1` (stereo not given): inactive: 100%; for `COCCNC(=S)N1CCC(NC(=O)Nc2ccc(F)cc2)CC1`: inactive: 91%; for `CCCNC(=O)C(CC)n1nc(CC)n2c(cc3oc(C)cc32)c1=O` (stereo not given): inactive: 120%.
Consider `COc1cccc(C(=O)c2cn(CC(=O)NCCc3ccccc3)c3nc(C)ccc3c2=O)c1`, for which the survival was inactive: 74%.
For `CCCN(CCC)CCCNC(=O)Cn1cc2c(n1)-c1c(oc(C(=O)N3CCCC3)c1C)CC2` the value was inactive: 82%; for `Cc1ccc(C(=O)c2oc3ccccc3c2NC(=O)COc2ccccc2Cl)cc1`, inactive: 123%; for `COc1cccc(NC(=O)Cn2c(=O)n(CCc3ccccc3)c(=O)c3c4c(sc32)CN(C(C)=O)CC4)c1`, inactive: 69%.
For `CCCNC(=O)C1CCN(S(=O)(=O)c2ccccc2)CC1` the value was inactive: 96%; for `CCOC(=O)c1cc2c(=O)n3ccccc3nc2n(CC2CCCO2)c1=NC(=O)c1ccc(OC)cc1OC` (stereo not given), active: 38%; for `CCOc1ccc(NC(=O)NCc2ccc3c(c2)CCN3C(C)=O)cc1`, inactive: 74%.
For `O=C(OC1CSc2nc3ccccc3n2C1)c1ccccc1Cl` (stereo not given) the value was inactive: 95%; for `Cc1cc(C)n(-c2nc3ccccc3nc2N2CCN(c3cccc(C)c3C)CC2)n1`, active: -6%; for `CCCOc1ccc(C(=O)Nc2cc(-c3nc4ccccc4[nH]3)ccc2C)cc1`, active: 44%.
As for `COc1cccc(CN2CCCN(Cc3ccc(F)cc3)S2(=O)=O)c1`, the survival is inactive: 89%.
The same measure for `COc1cccc(CNC(=O)c2cc3cc(C)ccc3n2C)c1`: inactive: 78%.
For the molecule `Cc1ccc(O)c(NC(=O)C2=CC(c3cccs3)=NS(=O)(=O)N2C)c1`, the survival was inactive: 76%.
`Cc1ccccc1OCC(=O)Nc1nnc(SCc2cc(=O)n3cccc(C)c3n2)s1`: the survival is inactive: 84%.
For `Cc1ccc(C2C(C(=O)/C=C/c3ccccc3)=C(O)C(=O)N2CCO)cc1` (stereo not given) the value was inactive: 78%; for `CC(C)n1c(SCC(=O)c2ccc(F)cc2)nc2c(sc3ccccc32)c1=O`, inactive: 68%.
The same measure for `Cc1cccc2nc(Cn3c(=O)n(-c4ccccc4)c(=O)c4c5c(sc43)CCC5)cc(=O)n12`: inactive: 53%; for `COc1ccccc1OCCCn1c(C2CC(=O)N(c3ccc(F)cc3)C2)nc2ccccc21` (stereo not given): inactive: 76%; for `CCOc1ccccc1NC(=O)CSc1nnc(CC)c(CC)n1`: inactive: 73%.
Consider `CCCN(C(=O)c1c(C)oc2ncn(CC(C)C)c(=O)c12)c1ccccc1C`, for which the survival is inactive: 80%.
For `COc1ccc(-c2nn(C)c3sc(C(=O)Nc4cc(OC)c(OC)c(OC)c4)cc23)cc1OC` the value was inactive: 87%; for `CCN1c2ccccc2-c2nc(SCC(=O)Nc3cc(OC)cc(OC)c3)ncc2S1(=O)=O`, active: 37%.
Turning to `Cc1ccc(-n2c(=O)c3ccc(C(=O)NCc4ccccc4Cl)cc3n(Cc3cccc(F)c3)c2=O)cc1`, the survival was inactive: 74%.
For `COc1ccc(N2CCN(C(CNC(=O)c3c(F)cccc3F)c3ccc4c(c3)OCO4)CC2)cc1` (stereo not given) the value was inactive: 93%.
For `CC1C(=N)N(c2nc(N(C)C)nc(N(C)C)n2)CC1=O` (stereo not given), the survival is inactive: 88%.
